This is an account of results in the supplement of paper PMC12355420.

Where a name gives a salt, the structure may show the parent alone. The list shows a part of the results. Single values are uncertain, as repeats are few or missing.
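Further: primary screen of an FDA-approved drug library in HeLa reporter cells in 96-well format, CellMask signal normalized to DMSO-treated wells set as 1, under 0.5 deemed highly cytotoxic.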

In the assay the test system is HeLa VPS33A reporter cells. Put plainly: relative cell viability (CellMask signal) vs DMSO (fraction of DMSO); HeLa model of a glycosaminoglycan (GAG) storage disease; KI is knock-in and KO knock-out; SDC1 is syndecan 1; higher = less cytotoxic. As to conditions: 50 µM; 24 h.
In turn, `N[C@@H]1C[C@H]1c1ccccc1` [Tranylcypromine hydrochloride] returned a relative cell viability of 1.06. The same measure for `CCC(COC(=O)c1cc(OC)c(OC)c(OC)c1)(c1ccccc1)N(C)C` (stereo unspecified) [Trimebutine]: 0.464. The figure for `CN(C)NC(=O)CCC(=O)O` [Daminozide] is 1.13; for `CCOC(=O)Nc1ccc(NCc2ccc(F)cc2)cc1N` [Retigabine] it is 1.06; for `NC(=O)CN1CC(c2ccccc2)CC1=O` (stereo unspecified) [Phenylpiracetam] it is 0.0834.

On to `CNCC(O)c1ccc(O)cc1` (stereo unspecified) [Synephrine], for which the relative cell viability was found to be 0.869. The same measure for `C[C@@H]1O[C@@H](O[C@H]2C[C@@H](O)[C@]3(CO)[C@H]4[C@H](O)C[C@]5(C)[C@@H](C6=CC(=O)OC6)CC[C@]5(O)[C@@H]4CC[C@]3(O)C2)[C@H](O)[C@H](O)[C@H]1O` [Ouabain Octahydrate]: 0.00754; for `CC(C)[C@]12O[C@H]1[C@@H]1O[C@]13[C@]1(O[C@H]1C[C@H]1C4=C(CC[C@@]13C)C(=O)OC4)[C@@H]2O` [Triptolide]: 0.0271.

`Cc1cc(C(C#N)c2ccc(Cl)cc2)c(Cl)cc1NC(=O)c1cc(I)cc(I)c1O` (stereo unspecified) [Closantel] had a relative cell viability of 0.00862. The figure for `Cc1cc(C(C#N)c2ccc(Cl)cc2)c(Cl)cc1NC(=O)c1cc(I)cc(I)c1O` (stereo unspecified) [Closantel Sodium] is 0.69; for `O=C1CC[C@@]2(O)[C@H]3Cc4ccc(O)c5c4[C@@]2(CCN3CC2CC2)[C@H]1O5` [Naltrexone HCl] it is 0.966; for `CCCCCCCCCCCCCCCC[n+]1ccccc1` [Cetylpyridinium Chloride] it is 0.00363. `O=C(O[C@H]1C[C@H]2CC[C@@H](C1)[N+]21CCCC1)C(O)(c1ccccc1)c1ccccc1` [Trospium chloride] showed a relative cell viability of 1.03. `COc1ccc(C(CN(C)C)C2(O)CCCCC2)cc1` (stereo unspecified) [Venlafaxine] displayed a relative cell viability of 1.

In the case of `CC(C)[C@]12O[C@H]1[C@@H]1O[C@@]13[C@@]1(C)CCC4=C(COC4=O)[C@@H]1C[C@@H]1O[C@@]13C2=O` [Triptonide], the relative cell viability amounted to 0.0254. The same measure for `CC(C)c1cccc(C(C)C)c1O` [Propofol]: 1.02. The figure for `CC(C)N(CCNC(=O)CN1CCCC1=O)C(C)C` [Pramiracetam] is 1.12. The same measure for `COc1cc2c(c(OC)c1OC)-c1ccc(OC)c(=O)cc1[C@@H](NC(C)=O)CC2` [Colchicine]: 0.265; for `CC[C@H](C)[C@@H]([C@@H](CC(=O)N1CCC[C@H]1[C@H](OC)[C@@H](C)C(=O)N[C@H](C)[C@@H](O)c1ccccc1)OC)N(C)C(=O)[C@@H](NC(=O)[C@@H](NC)C(C)C)C(C)C` [Monomethyl auristatin E]: 0.474. For the compound `C[C@]12CCC(=O)C[C@@H]1CC[C@@H]1[C@@H]2CC[C@]2(C)[C@@H](O)CC[C@@H]12` [Dihydrotestosterone(DHT)], the relative cell viability was found to be 1.01. The same measure for `Oc1cc(Cl)ccc1Oc1ccc(Cl)cc1Cl` [Triclosan]: 0.00733; for `COc1cc2c3c(c1OC)-c1ccccc1C[C@H]3N(C)CC2` [Nuciferine]: 0.00557. The figure for `CC[C@@H](C(=O)[C@@H](C)[C@@H](O)[C@H](C)[C@@H]1O[C@@H]([C@@H](CC)C(=O)O)CC[C@@H]1C)[C@H]1O[C@]2(C=C[C@@H](O)[C@]3(CC[C@@](C)([C@H]4CC[C@](O)(CC)[C@H](C)O4)O3)O2)[C@H](C)C[C@@H]1C` [Salinomycin] is 0.00453; for `COc1cccc2c1cc([N+](=O)[O-])c1c(C(=O)O)cc3c(c12)OCO3` [Aristolochic Acid A] it is 0.0624; for `CC(=O)O[C@@]12CO[C@@H]1C[C@H](O)[C@@]1(C)C(=O)[C@H](O)C3=C(C)[C@@H](O)C[C@@](O)([C@@H](OC(=O)c4ccccc4)[C@H]21)C3(C)C` [10-DAB (10-Deacetylbaccatin)] it is 0.0622. The same measure for `CCC1(c2cccc(O)c2)CCCCN(C)C1` (stereo unspecified) [Meptazinol HCl]: 0.941.
